Publication PMC4336329 (PLoS ONE, 2015)
The whole screen tested about 310,000 compounds, of which about 14,000 (4.5%) showed an effect of 50% or more. Effects have a minus sign here. The list shows a part of the results.

The compounds below were run against human ether-à-go-go-related gene (hERG) potassium channel (human, UniProt Q12809) (assay: primary screen, population patch clamp on CHO cells stably expressing hERG).
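Note: peak tail current of the secondary pulse compared with the same well before compound.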

Chain of human ether-à-go-go-related gene (hERG) potassium channel (Q12809 whole entry, looked up): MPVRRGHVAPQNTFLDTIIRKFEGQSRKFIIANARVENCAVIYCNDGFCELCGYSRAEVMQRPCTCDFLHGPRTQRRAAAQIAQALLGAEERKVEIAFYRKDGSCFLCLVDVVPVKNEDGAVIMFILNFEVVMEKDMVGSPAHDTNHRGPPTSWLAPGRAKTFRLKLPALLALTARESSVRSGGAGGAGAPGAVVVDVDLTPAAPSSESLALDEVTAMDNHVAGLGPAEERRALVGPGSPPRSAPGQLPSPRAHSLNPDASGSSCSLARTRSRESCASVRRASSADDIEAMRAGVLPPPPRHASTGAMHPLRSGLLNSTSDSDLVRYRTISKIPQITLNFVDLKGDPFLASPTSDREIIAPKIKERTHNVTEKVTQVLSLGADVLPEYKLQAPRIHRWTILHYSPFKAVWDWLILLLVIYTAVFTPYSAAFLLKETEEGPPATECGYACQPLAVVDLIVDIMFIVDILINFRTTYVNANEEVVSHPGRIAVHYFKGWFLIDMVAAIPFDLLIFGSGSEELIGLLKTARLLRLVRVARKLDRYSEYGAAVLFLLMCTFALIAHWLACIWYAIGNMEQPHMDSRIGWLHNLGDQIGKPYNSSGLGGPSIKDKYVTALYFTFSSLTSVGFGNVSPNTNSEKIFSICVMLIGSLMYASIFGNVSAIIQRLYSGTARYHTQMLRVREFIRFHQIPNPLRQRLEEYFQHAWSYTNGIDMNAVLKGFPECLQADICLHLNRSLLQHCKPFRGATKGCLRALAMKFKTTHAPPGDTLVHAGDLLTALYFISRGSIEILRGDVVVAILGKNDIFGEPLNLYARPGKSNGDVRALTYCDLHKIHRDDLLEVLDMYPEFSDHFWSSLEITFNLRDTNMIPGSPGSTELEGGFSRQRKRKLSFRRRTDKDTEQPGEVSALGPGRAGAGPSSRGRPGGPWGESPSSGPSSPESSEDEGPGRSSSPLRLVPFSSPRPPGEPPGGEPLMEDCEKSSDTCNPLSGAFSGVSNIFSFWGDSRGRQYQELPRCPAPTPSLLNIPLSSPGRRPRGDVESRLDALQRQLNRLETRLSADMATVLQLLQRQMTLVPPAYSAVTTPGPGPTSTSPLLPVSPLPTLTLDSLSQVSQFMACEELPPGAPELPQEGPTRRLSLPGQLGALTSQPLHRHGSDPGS

| Structure (SMILES) | hERG current change (%, negative = inhibition) at 10uM [%] |
| --- | --- |
| COc1ccc(/C=C/C(=O)Nc2ccc(OC)nc2)cc1 | -0.724 |
| CNCC/C=C1/c2ccccc2CSc2ccccc21.Cl | -11.3 |
| CCOc1ccccc1N1CN(Cc2ccccc2)CNC1=S | 2.61 |
| COC(=O)CCc1ccc(OCC(O)CNC(C)C)cc1.Cl (stereo not drawn) | -2.4 |
| Cc1ccc(/C(O)=C2/C(=O)C(=O)OC2c2ccc(Cl)cc2)cc1 (stereo not drawn) | 12.6 |
| Cc1ccnc(NS(=O)(=O)c2ccc(NC(=O)CSc3nc(-c4ccccc4)cc(=O)[nH]3)cc2)n1 | 28.6 |
| CCN(C(=O)CSc1nnc(-c2ccncc2)n1-c1ccccc1)C1CCS(=O)(=O)C1 (stereo not drawn) | 14.9 |
| Cc1noc(C)c1C(=O)OCC(=O)NCCc1ccc(Cl)cc1 | -10.8 |
| COC(=O)c1c(NC(=O)C2COc3ccccc3O2)sc2c1CCN(Cc1ccccc1)C2.Cl (stereo not drawn) | -21.7 |
| Cc1ccccc1NS(=O)(=O)c1ccc(C(=O)N2CCN(S(=O)(=O)c3ccccc3)CC2)cc1 | 24 |
| Cc1nnc(-c2ccc(N3CCCCCC3)c([N+](=O)[O-])c2)o1 | -4.52 |
| CCOC(=O)C(CC)Sc1ncnc2c1nnn2-c1ccc(F)cc1 (stereo not drawn) | -0.503 |
| CCOc1ccc(NC(=O)CN(C)C(=O)C2CCN(C(=O)c3ccc(Cl)cc3)CC2)cc1OCC | -48.1 |
| O=C(CCNS(=O)(=O)c1ccccc1)OCC(=O)c1ccc[nH]1 | 0.977 |
| C#Cc1ccc([C@@H]2C=C(C(=O)N3CCOCC3)O[C@H](OCC)[C@H]2CCCO)cc1 | -2.34 |
| COc1c(F)c(F)cc2c(=O)c(C(=O)O)cn(C3CC3)c12 | -2.34 |
| CC(=C/c1ccccc1)/C=N/n1c(-c2ccco2)n[nH]c1=S | 7.11 |
| CCOc1cc(CNn2cnnc2)cc(Br)c1OCC(=O)NC1CCCCC1 | -7.6 |
| O=C(c1ccc(Br)o1)N1CCCc2ccccc21 | -0.525 |
| O=C(Cn1cnnn1)NCc1ccccc1 | 29.6 |
| COc1ccc(CN2C(=O)c3ccccc3C2=O)cc1C(=O)N(C)CC(=O)Nc1c(C)cccc1C | -16.7 |
| Cc1cccc2nc(CSc3ccccc3C(=O)O)cn12 | 26.3 |

| Structure (SMILES) | hERG current change (%, negative = inhibition) at 10uM [%] |
| --- | --- |
| Cc1cc(C)cc(NC(=O)C(OC(=O)c2ccc(NC(=O)CC#N)cc2)c2ccccc2)c1 (stereo not drawn) | -6.68 |
| COc1ccc(-n2nnnc2SCC(=O)N2CCN(C(=O)c3ccco3)CC2)cc1OC | -3.54 |
| Cc1ccc(Nc2nc(N)nc(CN3CCN(Cc4ccc5c(c4)OCO5)CC3)n2)cc1Cl | -81.2 |
| CCCC(=O)Nc1ccc2c(c1)Cc1ccccc1-2 | 7.33 |
| O=C(NCCc1ccccc1)c1cccnc1N1CCCCCC1 | -9.27 |
| O=C(CN1C(=O)COc2ccccc21)NCCN1CCCC1 | 13.6 |
| COc1ccc(C(=O)NNC2=CC(=O)CC(C)(C)C2)cc1 | 1.65 |
| O=C(CSc1nn(-c2ccc(F)cc2)c(=S)s1)NC(=O)NCc1ccco1 | 2.66 |
| COc1cccc(C2C([N+](=O)[O-])=C(N)Oc3cc(C)oc(=O)c32)c1 (stereo not drawn) | -5.36 |
| CCOc1ccc(N(CC(=O)N2CCCCC2)S(=O)(=O)c2ccc(Cl)cc2)cc1 | -23.1 |
| Br.FC(F)(F)c1nnc2n1N=C(c1ccccc1)CS2 | 21.3 |
| CC(C)CNC(=O)C1Nc2ccc(C(F)(F)F)cc2C2C=CCC12 (stereo not drawn) | 11.3 |
| Cc1csc(NC(=O)CSc2nc(C)cs2)n1 | 5.5 |
| O=C(N/N=C/c1cc([N+](=O)[O-])ccc1O)Nc1ccccc1 | 18.2 |
| Cc1nc(NC(C)C)c2oc3ccccc3c2n1.Cl | -11.7 |
| COc1ccccc1CNC(=O)Cn1nnc(-c2ccncc2)n1 | 1.05 |
| COc1ccc(/C(C)=N/N2C(C)CCCC2C)c(OC)c1 (stereo not drawn) | 2.37 |
| CC(=O)c1ccc(NC(=O)CSc2nc3[nH]ncc3c(=O)[nH]2)cc1 | 13.6 |
| CC1(OC(=O)c2ccco2)C(=O)C=C2C=C(c3ccsc3)OC=C2C1=O (stereo not drawn) | 9.22 |
| COc1ccc(C(=O)NNC(=O)Cc2ccc([N+](=O)[O-])cc2)cc1 | 0.758 |
| C=CCNC(=O)CN1CCC(O)(c2ccc(F)cc2)CC1 | -5.8 |
| O=C(Nc1c2c(nn1-c1ccccc1)CS(=O)C2)c1ccc(S(=O)(=O)N2CCOCC2)cc1 (stereo not drawn) | 17.4 |

| Structure (SMILES) | hERG current change (%, negative = inhibition) at 10uM [%] |
| --- | --- |
| Cc1cc(C)nc(NS(=O)(=O)c2ccc(NC(=O)NC3CCCCC3)cc2)n1 | 5.67 |
| Cc1[nH]n(-c2ccc([N+](=O)[O-])cc2)c(=O)c1C=NCCN1CCN(C(=O)c2cccc(F)c2)CC1 | -73.4 |
| COC(=O)c1cc(OC)c(OC)cc1NC(=O)c1ccccc1C | 2.02 |
| CCC(c1nnnn1C1CCCC1)N1CCN(C(=O)c2ccco2)CC1.Cl (stereo not drawn) | -10.6 |
| CC(C)n1c(C(O)c2ccccc2)nc2ccccc21 (stereo not drawn) | 4.59 |
| CC(C)(C)NC(=O)COC(=O)Cc1ccc(Cl)cc1 | 5.79 |
| CCc1ccc2nc(N(CCCN(C)C)C(=O)c3ccc(S(=O)(=O)N4CCc5ccccc5C4)cc3)sc2c1.Cl | -7.91 |
| Cl.Clc1cccc(CSc2nnc([C@@H]3CCCN3)o2)c1 | 1.31 |
| Brc1ccc(/C=N/Nc2nc3ccccc3o2)cc1 | 17 |
| Cc1cc(N2CCN(c3cccc(C(F)(F)F)c3)CC2)n2nc(C)nc2n1 | -61.9 |
| O=C(Nc1nnc(/C=C/c2ccccc2)s1)c1ccco1 | 6.8 |
| CC(=O)Nc1ccccc1-c1nc2ccccc2nc1OCC(=O)c1ccc(Br)cc1 | -19.2 |
| C#CCN1C(=O)S/C(=C/C=C/c2ccc(N(C)C)cc2)C1=O | 16.9 |
| Cc1ccccc1NC(=O)c1cccc(S(=O)(=O)N2CCOCC2)c1 | 31.9 |
| CCN(CC(=O)Nc1ccc2c(c1)CCC2)Cc1nc2ccccc2c(=O)[nH]1 | -40.8 |
| Cc1cc(F)ccc1NC(=O)CCc1c(C)nn(-c2ccc(N3CCCCC3)nn2)c1C | 13.5 |
| COc1ccc(CCNC(=O)C2CC(c3cccc([N+](=O)[O-])c3)=NO2)cc1 (stereo not drawn) | -21.8 |
| Cn1c(C(=O)NCCCN2CCCC2=O)cc2c(=O)n(C)c3ccccc3c21 | -8.51 |
| CCN1CCN(CCCNC(=O)c2ccc3c(c2)N(Cc2ccc(C)cc2)CCS3)CC1 | -44.5 |
| CN1CCN(S(=O)(=O)c2ccc(NC(=S)NC(=O)C3CCCCC3)cc2)CC1 | -0.0441 |
| COc1ccc(NC(=O)[C@H](C)NC(=O)C2CCN(S(=O)(=O)c3ccc(C)cc3)CC2)cc1OC | 3.13 |
| CCN(CC)C(=O)CSc1nnc(CCCCCNC(=O)OC(C)(C)C)o1 | -4.74 |

| Structure (SMILES) | hERG current change (%, negative = inhibition) at 10uM [%] |
| --- | --- |
| O=C(Cc1nnc(NC(=O)c2ccccc2)s1)N/N=C/c1ccc(O)cc1 | 16.1 |
| CC(C)C[C@H](N)c1cn([C@@H](CCCCN)C(=O)N2CCNCC2)nn1.Cl | 12.1 |
| COc1ccc(CCn2c(=N)c(C(=O)NC3CCCCC3)cc3c(=O)n4ccccc4nc32)cc1 | -79.4 |
| O=S(=O)(c1ccc(NC(=S)NCc2ccco2)cc1)N1CCCC1 | 10.1 |
| Cc1cc(C)n2[nH]c(=O)c(N=Nc3ccccc3)c2n1 | 9.18 |
| O=C(N/N=C/c1ccc(-c2ccc([N+](=O)[O-])cc2)o1)c1cccnc1 | -10.6 |
| COc1ccc(NC(=O)c2cccs2)c([N+](=O)[O-])c1 | -3.28 |
| Cc1cc(C)n(-c2ccc(C(=O)Nc3nnc(C)s3)cc2)n1 | 10.9 |
| CC(CCc1ccccc1)NC(=O)c1cnc(Cl)c(Cl)c1 (stereo not drawn) | 2.02 |
| Cc1ccc(-c2onc3ccc(Br)cc23)cc1 | 13.8 |
| CC(C)c1ccc(-c2nc(N3CCOCC3)[nH]c(=O)c2C#N)cc1 | 1.33 |
| COCCN(C(=O)COC(=O)CCSc1ccc(F)cc1)c1c(N)n(Cc2ccccc2)c(=O)[nH]c1=O | 1.82 |
| Cc1ccc(C(=O)/C=C/c2ccc(Br)cc2)o1 | -5.18 |
| Nc1nc(SCC(=O)O)[nH]c(=O)c1NC(=O)c1ccccc1F | 24.2 |
| CCC(CC)C(=O)Nc1cccc(SC)c1 | 12.6 |
| CC(C)CC(NC(=O)/C(=C\c1ccco1)NC(=O)c1ccco1)C(=O)O (stereo not drawn) | 16.6 |
| O=C(N/N=C/c1ccco1)c1ccc(NC(=O)C2CCCCC2)cc1 | 1.43 |
| Cn1nc(C(=O)NCc2cccc(F)c2)cc1C(=O)NCc1cccc(F)c1 | -14.2 |
| COc1cc2c(cc1OC)C(C)N(S(=O)(=O)c1cnc(Cl)c(Cl)c1)CC2 (stereo not drawn) | -1.43 |
| COc1ccc(Cl)cc1NC(=O)Nc1cnccn1 | 15.8 |
| CCn1cc(C(=O)N2CCN(Cc3ccc4c(c3)OCO4)CC2)c(=O)c2ccc(C)nc21 | -1.84 |
